Measured values as given in PubChem BioAssay AID485344 (National Center for Advancing Translational Sciences (NCATS), 2010).
The whole screen tested about 340,000 compounds, of which about 6,900 (2%) were called active. Rule as the data show it: active = inhibition above about 30%; inactive = below that, where a call was filed. This is a selection; strong and weak results do not stand in their true shares. Where no call is shown, the source filed none.

Each compound was assayed against D(2) dopamine receptor (Homo sapiens) (UniProt P14416) (assay: HTS Assay for Allosteric Antagonists of the Human D2 Dopamine Receptor: Primary Screen for Antagonists). Conditions: HEK293 TREx D2 cells, calcium flux, dopamine EC80; at 10 µM; stronger effect = higher value.
Sequence of UniProt P14416 (P14416 whole entry, looked up): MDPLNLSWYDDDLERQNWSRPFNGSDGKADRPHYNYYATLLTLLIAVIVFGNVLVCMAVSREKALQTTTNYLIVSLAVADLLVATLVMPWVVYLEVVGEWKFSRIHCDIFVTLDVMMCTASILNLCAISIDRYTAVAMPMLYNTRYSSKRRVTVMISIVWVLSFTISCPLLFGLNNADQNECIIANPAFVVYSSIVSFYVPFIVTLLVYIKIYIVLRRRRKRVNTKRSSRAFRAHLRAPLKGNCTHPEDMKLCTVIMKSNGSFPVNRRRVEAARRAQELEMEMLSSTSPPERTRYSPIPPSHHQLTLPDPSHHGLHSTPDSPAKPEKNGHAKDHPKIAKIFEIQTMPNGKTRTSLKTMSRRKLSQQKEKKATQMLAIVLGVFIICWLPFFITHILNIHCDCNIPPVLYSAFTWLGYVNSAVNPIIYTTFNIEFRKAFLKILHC
Summary of the method: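 Tetracycline-induced HEK293 TREx cells expressing D2 receptor forced-coupled to calcium signalling, loaded with no-wash calcium dye. Compounds added and calcium flux read 180 s, then dopamine added at EC80 and read a further 180 s.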
Also: 0% is about no effect.

SMILES	inhibition
CCOC(=O)C1CCN(C(c2ccc(SC)cc2)c2c(O)cc(C)n(Cc3ccco3)c2=O)CC1 (stereo not given)	1.73%
COC(=O)c1cc2sc(Cl)cc2n1Cc1c(C)cc(C)cc1C	13.4%
COc1ccc(-c2c(C)c3ccc(O)c(CN4CCOCC4)c3oc2=O)cc1	-11.4%
CCn1c2ccccc2c2cc(NC(=O)COc3ccc(C)cc3C)ccc21	-24.4%
COc1ccc(OC)c(CNC(=O)c2ccc(C)c(NC(=O)c3nsc4ccccc34)c2)c1	0.176%
CCCCNC(=O)C1CCN(S(=O)(=O)CCC)CC1	1.65%
CCOc1ccc(OCC)c(NS(=O)(=O)c2cc(-c3cnc(C)o3)ccc2OC)c1	8.75%
COc1ccc(-c2cc(C)no2)cc1S(=O)(=O)Nc1c(C)cc(C)cc1C	10.4%
Cc1ccc(Cn2c(CNS(=O)(=O)c3cccc([N+](=O)[O-])c3)nc3cccnc32)cc1	20.6%
COc1ccc(C)cc1NC(=O)c1ccc2c(=O)n3c(nc2c1)CCCCC3	-8.87%
CCC(C)(C)NC(=O)c1ccc2c(c1)N(CC(=O)NC1CCCC1)C(=O)C(C)(C)O2	active: 62.3%
Cc1cccc(-c2nc3c4ccccc4nc(N4CCN(c5ccccc5F)CC4)n3n2)c1	-5.19%
Cc1ccc(CNC(=O)NCc2noc3ccc(C)cc23)cc1	2.5%
COc1ccc(C(=O)NCCn2cc(SCC(=O)Nc3ccc(C)cc3)c3ccccc32)cc1	-22.7%
Cn1c(=O)c2c(-c3ccc(Cl)cc3)n(Cc3ccc(Cl)cc3)cc2n(C)c1=O	5.77%
COc1ccccc1OCCCSc1nc(-c2ccc(C(C)(C)C)cc2)nc2cc(=O)[nH]n12	-1.22%
Cc1ccc(NC(=O)C(Cc2ccccc2)n2cccc2)cc1 (stereo not given)	-12.9%
COCCCn1c(=O)c2sccc2n2c(CCCC(=O)Nc3cc(C)cc(C)c3)nnc12	14.3%
COc1ccc(CNC(=O)Cn2ncc3c4ccccc4n(Cc4cccc(Cl)c4)c3c2=O)cc1	9.11%
OCCN1CCN(CCCN2c3ccccc3Sc3ccc(C(F)(F)F)cc32)CC1	active: 59.7%

SMILES	inhibition
Cc1ccc(C)c(S(=O)(=O)c2cn(C)c3cc(N4CCCCC4C)c(F)cc3c2=O)c1 (stereo not given)	-0.644%
COc1ccc(OC)c(NCc2cccn2-c2nnc(N3CCCCC3)s2)c1	7.14%
O=C(NCCc1ccc(F)cc1)C(=O)NCC(c1cccs1)S(=O)(=O)c1ccc(F)cc1 (stereo not given)	12.6%
Cc1ccc2sc(N3CCN(C(=O)CCS(=O)(=O)c4ccc(Cl)cc4)CC3)nc2c1C	-15.1%
Cc1ccc(-c2cn3nc(N4CCCC(C(=O)Nc5ccc(F)cc5)C4)sc3n2)cc1 (stereo not given)	-2.73%
CCCN(CCC)C(=O)Cn1c(=O)n(-c2cccc(OC)c2)c(=O)c2c(C)c(C(=O)N(C)C)sc21	13.2%
CCC(Sc1nc2ncccc2[nH]1)C(=O)Nc1cccc(OC)c1 (stereo not given)	-11.2%
Cc1ccc(N(CC(=O)N2CCN(c3ccc(Cl)cc3)CC2)S(=O)(=O)c2c(C)nn(C)c2C)cc1	21.2%
NC(=O)C1CCN(S(=O)(=O)c2cccc(S(=O)(=O)N3CCCCC3)c2)CC1	active: 70.4%
CCOc1ccc(C(c2c(O)cc(C)n(CCOC)c2=O)N2CCN(c3ccccc3)CC2)cc1 (stereo not given)	-6.24%
CCC1CCCCN1CCCNC(=O)c1[nH]c2ccccc2c1Sc1ccc(Cl)cc1 (stereo not given)	16.4%
COc1cccc(CNC(=O)C(CC(C)C)NS(=O)(=O)c2ccc3c(c2)oc(=O)n3C)c1 (stereo not given)	-18.6%
Cc1c2cnn(CC(=O)N3CCCCC3)c(=O)c2c(C)n1Cc1ccc(F)cc1	-11.5%
Cc1ccc(Cl)cc1NS(=O)(=O)c1ccc2oc(=O)c3ncn(C)c3c2c1	3.95%
COc1ccc(-c2noc(N3CCC(C(=O)Nc4ccc(F)cc4Cl)CC3)n2)cc1	4.62%
CCN(C(=O)CCS(=O)(=O)c1cc2[nH]c(=O)c(=O)[nH]c2cc1C)c1ccccc1	-12.6%
Cc1ccc2c(c1)C(=O)OC(C(=O)Nc1ncc(Cc3ccc(C(C)C)cc3)s1)C2 (stereo not given)	18.3%
CCCCc1nn2c(=O)cc(COC(=O)CNC(=O)COc3ccc(C)cc3)nc2s1	13%
Cc1ccccc1-c1nc(CN2CCC(C(=O)NC(C)C)CC2)c(C)o1	9.36%
CCOc1ccc(NC(=O)c2c(NCc3cccs3)sc3c2CCC(C)C3)cc1 (stereo not given)	12.9%

SMILES	inhibition
CCOC(=O)c1ccc(N=C2SC(C(=O)Nc3ccccc3)CC(=O)N2C)cc1 (stereo not given)	-13.5%
CCN(CC)c1ccc(C2C(C(N)=O)=C(C)Nc3nc(SCc4ccccc4Cl)nn32)cc1 (stereo not given)	-9.79%
COc1ccc(C)cc1NS(=O)(=O)c1ccc2oc(=O)c3ncn(C)c3c2c1	9.29%
Cc1ccc(NC(=O)c2ccc(C)c(S(=O)(=O)N3CCCCCC3)c2)cc1	-8.64%
CC(C)N(c1ccccc1)c1ccc(NC(=S)NCCN(C)C)cc1	active: 82.5%
O=C(NCCSCc1ccccc1)C1CCN(S(=O)(=O)Cc2ccccc2)CC1	12.9%
COc1ccc(CNC(=O)C2(c3cccs3)CCOCC2)cc1	-13.5%
Cc1cccc(NC(=O)Cn2c(SCC(=O)NCc3ccccc3)nc3ccccc32)c1C	11.7%
O=C(c1cnn(-c2ccc(F)cc2)c1-n1cccc1)N1CCN(c2ccccc2)CC1	-0.328%
CCOc1ccc(-c2cn3nc(CC(C)C)sc3n2)cc1	-1.74%
COc1ccc(NC(=O)Nc2cc(C(=O)NCc3ccc(C)cc3)ccc2N2CCCC2)cc1	2.86%
CCCCN(C)CCCNC(=O)c1cn(CC)c2ccc(S(=O)(=O)N3CCc4ccccc4C3)cc2c1=O	9%
COc1ccccc1CNC(=O)c1cc(S(=O)(=O)N2CCCC(C)C2)cn1C (stereo not given)	-8.05%
CCc1ccc(NC(=O)CC2C(=O)N(c3ccc(F)cc3)C(=O)N2Cc2ccc(F)cc2)cc1 (stereo not given)	4.07%
Cc1ccc2oc(-c3ccc(NC(=O)c4oc5ccc(Cl)cc5c4C)cc3)nc2c1	-11.8%
Cc1cccc(NC(=S)N(CCCN2CCOCC2)Cc2ccccn2)c1	active: 39.6%
Cc1ccc(-n2nc(C)c3c(C(F)(F)F)cc(-c4cccnc4)nc32)cc1C	10.5%
CCN1C(=O)c2ccccc2S(=O)(=O)c2ccc(C(=O)NCc3ccccc3OC)cc21	10.3%
CC(C)c1ccc(NC(=O)c2cc3c(=O)[nH]c4ccccc4c3n2C)cc1	-1.59%
O=C(CSc1cn(CC(=O)N2CCCCC2)c2ccccc12)NCc1ccccc1Cl	7.4%
